Among the data in PubChem BioAssay AID488969 (Vanderbilt High Throughput Screening Facility, 2010) are z-score values, retold here.

In all, about 110,000 compounds were measured (“z-score”: median about -0.1, highest 2% from about 2 on). The list shows a part of the results. Active and inactive are the calls of the source.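 Rule for the calls: active = z-score in the third read window above 3 or below -3; inactive = the rest.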

This assay deals with Metabotropic glutamate receptor 8 (Rattus norvegicus) (UniProt P70579). The assay can be described thus: mGluR8 Gi/Go-coupled signaling modulation – cell-based, rat, thallium flux, HTS, primary screen (AID 488969). The following applies: HEK293 rat mGluR8, GIRK (G protein-gated inwardly rectifying potassium channel) thallium flux, FluoZin2; at 10 µM; stronger effect = higher value; submaximal glutamate (EC20) added with thallium.
UniProt P70579, sequence (P70579 whole entry, looked up): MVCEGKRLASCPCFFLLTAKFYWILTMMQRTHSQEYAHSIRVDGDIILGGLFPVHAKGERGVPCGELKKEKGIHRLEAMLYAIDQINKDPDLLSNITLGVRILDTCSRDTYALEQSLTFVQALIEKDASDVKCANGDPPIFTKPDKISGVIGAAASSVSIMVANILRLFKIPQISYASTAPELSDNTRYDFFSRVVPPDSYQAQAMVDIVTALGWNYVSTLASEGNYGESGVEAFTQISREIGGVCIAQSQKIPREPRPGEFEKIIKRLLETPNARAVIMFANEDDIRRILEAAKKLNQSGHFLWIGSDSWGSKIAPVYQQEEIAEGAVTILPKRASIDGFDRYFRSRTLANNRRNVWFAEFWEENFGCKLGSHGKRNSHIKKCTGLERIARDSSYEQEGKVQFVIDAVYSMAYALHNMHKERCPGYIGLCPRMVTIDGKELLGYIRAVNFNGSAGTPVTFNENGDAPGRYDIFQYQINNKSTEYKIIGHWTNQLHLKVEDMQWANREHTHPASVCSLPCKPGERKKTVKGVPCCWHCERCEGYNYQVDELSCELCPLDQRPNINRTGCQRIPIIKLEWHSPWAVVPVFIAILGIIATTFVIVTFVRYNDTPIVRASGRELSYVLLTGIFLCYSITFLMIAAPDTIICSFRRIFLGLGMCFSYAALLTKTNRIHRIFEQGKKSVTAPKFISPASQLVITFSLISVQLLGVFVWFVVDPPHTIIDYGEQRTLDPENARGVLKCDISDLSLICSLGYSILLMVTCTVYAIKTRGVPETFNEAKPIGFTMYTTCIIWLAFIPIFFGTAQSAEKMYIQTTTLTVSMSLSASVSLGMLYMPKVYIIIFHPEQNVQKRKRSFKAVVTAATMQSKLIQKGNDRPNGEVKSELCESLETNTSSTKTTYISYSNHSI
Turning to `Cc1cc(C)c(C#N)c(SCc2cn3c(C)cccc3n2)n1`, the z-score was -0.458.

As for `CCC1(C)Cc2c(sc3[nH]c(=S)n(Cc4ccccc4)c(=O)c23)CO1` (stereo not given), the z-score was active: 8.14.

In the case of `O=C(Nc1ccc(Nc2ccccc2)cc1)N1CCOCC1`, the z-score is 0.011.

`CC(=O)Oc1ccc(NC(=O)Cc2ccccc2)cc1`: the z-score stood at 0.286.

`COc1ccc(OCC(=O)NNC(=O)C2CCCO2)cc1` (stereo not given) yielded a z-score of -0.116.

`O=C(CSc1nnc(-c2cccs2)n1Cc1ccco1)Nc1ccc2c(c1)OCO2`: the z-score was -0.403.

Consider `O=C(Oc1ccccc1)c1cccc(COC(=O)c2cnccn2)c1`, for which the z-score is active: -3.31.

Turning to `O=C(NC(Cc1ccccc1)C(=O)NCc1ccccn1)c1ccco1` (stereo not given), the z-score came to 0.299.

In the case of `CC1(C)CN(O)CCN1O`, the z-score came to 0.0275.

Molecule `N#C/C(C(=O)N1CCCCC1)=C1/N=C(N)c2ccccc21` yielded a z-score of -0.458.

For `CCCNC(=O)Cn1c(=O)/c(=C\c2ccc(-c3cccc([N+](=O)[O-])c3)o2)s/c1=C\C(=O)C(C)(C)C`, the z-score was -0.27.

On to `Cc1ccccc1C(=O)Nc1ccccc1`, for which the z-score was -0.133.

`COc1ccc(NC(=O)CSc2nccn2-c2ccccc2)cc1` showed a z-score of -0.21.

The molecule `CCOc1ncccc1C(=O)N(CC)CC(=O)Nc1ccc(NC(C)=O)cc1` came in with a z-score of -0.339.

In turn, `O=C1CSC(c2c(F)cccc2Cl)N1c1cccc(F)c1` (stereo not given) displayed a z-score of -0.355.

Take `Cc1ccc(-n2nnnc2SCC(=O)Nc2ccc3c(c2)COC3=O)cc1C`: the z-score amounted to 0.959.

`COC(=O)c1[nH]c2ccc(C)cc2c1NC(=O)CN1CCN(c2ccccc2)CC1` came in with a z-score of -0.322.

In the case of `CCOC(=O)c1c(-c2ccc(C)o2)csc1NC(=S)NC(=O)c1cccs1`, the z-score is active: 3.05.

In turn, `O=C(N/N=C/c1cccs1)c1cc(-c2ccncc2)nc2ccccc12` came in with a z-score of -0.317.

With `CCOc1ccc2c(c1)-c1c(ssc1=S)C(C)(C)N2C`, the z-score is -0.11.

Take `Cc1cc(NC(=O)CN2CCN(C/C=C/c3ccccc3)CC2)c([N+](=O)[O-])cc1C`: the z-score is -0.0608.

For the molecule `O=C(O)c1ccc(-c2ccc(Cl)cc2Cl)o1`, the z-score was -0.251.

The molecule `CC(=O)Nc1ccc(S(=O)(=O)NCc2csc(-c3cccnc3)n2)cc1` came in with a z-score of 0.282.

In the case of `O=C(Nc1nnc(-c2ccc(Cl)cc2)o1)Nc1ccccc1Cl`, the z-score was found to be 1.85.

For `CNC(=O)c1sc(-c2ccc(Cl)cc2)nc1C`, the z-score was -0.0179.

Take `Cc1ccc(NC2=NCC(=O)N2c2ccc3c(c2)OCCO3)c(C)c1`: the z-score was found to be 0.0348.

`O=C(CCC(=O)Nc1ccccc1)NNC(=O)c1cccs1` returned a z-score of -0.138.

`CCn1c(SCC(=O)N2CCN(c3ccccc3)CC2)nnc1-c1ccncc1`: the z-score is 0.0506.

Take `COc1ccc(Nc2ncnc3scc(-c4ccc(OC)cc4)c23)cc1`: the z-score was -0.391.

Consider `CCC1=Nc2ccccc2-c2nnc(SC)nc2O1`, for which the z-score was -0.667.

For `FC(F)(F)c1cccc(CON=C2CCN(c3ncc(C(F)(F)F)cc3Cl)CC2)c1`, the z-score is -0.0477.

The molecule `COc1ccc(C(=O)NC(=O)Nc2ncccc2C)cc1` gave a z-score of -0.148.

`Cc1ccc(NC(=O)CNC(=O)c2ccccc2F)cc1Cl` came in with a z-score of -0.0793.

Regarding `c1ccc(-n2nnnc2-c2cnc(-c3cccnc3)nc2-c2cccs2)cc1`, the z-score was -1.53.

`CN(C)c1ccc(NC(=O)CN2CCC(N3CCCCC3)CC2)cc1` displayed a z-score of -0.0883.

Regarding `CCCOc1ccc(N2C(=O)CC(SC(=NCC)Nc3cccc(F)c3)C2=O)cc1` (stereo not given), the z-score was 0.042.

Molecule `CC(Sc1nc(N2CCOCC2)c2c(c1C#N)CC(C)(C)OC2)C(=O)Nc1ccccc1` (stereo not given) showed a z-score of -0.506.

The molecule `CC1=C(C(=O)OC(C)C)C(c2ccsc2)NC(=O)N1C` (stereo not given) registered a z-score of -0.181.

Turning to `CCOc1ccc(N=c2cc(-c3ccc(OC)cc3)oc3ccccc23)cc1`, the z-score is -0.124.

`CN1CCc2c(C#N)c(N3CCCCC3)nc(N3CCOCC3)c2C1` gave a z-score of 0.551.

`O=C(Nc1ccc(-c2nc3ccccc3s2)c(O)c1)C1=COCCO1` displayed a z-score of -0.294.

Molecule `CCOC(=O)C(NC(=O)NCc1ccccc1)(OCC)C(F)(F)F` (stereo not given) came in with a z-score of 0.191.

In turn, `COC(=O)C1C2C=CC3(CN(Cc4cccs4)C(=O)C13)O2` (stereo not given) gave a z-score of -0.516.

`CCCCCC(=O)Nc1c(-c2cccs2)c(=O)c2ccccc2n1C` displayed a z-score of 0.588.

The molecule `Cc1ccc(S(=O)(=O)Oc2cccc(/C=N/n3cnnc3)c2)cc1` yielded a z-score of -0.158.

Molecule `CCN(CC)S(=O)(=O)c1cccc(NC(=O)C(=O)c2c(-c3ccccc3)cc3ccccn23)c1` had a z-score of -0.947.

In the case of `CCOc1ccc(NC(=S)Nc2ccc3nsnc3c2)cc1`, the z-score is 0.109.

`Cc1nc2ccc(NC(=O)c3ccc(F)c(S(=O)(=O)N4CCOCC4)c3)cc2s1`: the z-score is 0.182.

Molecule `Cn1c(=O)n(CC(=O)Nc2ccc(F)cc2)c2ccccc21` showed a z-score of -0.0749.

Molecule `Cc1cc(O)c2c(-c3ccccc3)cc(=O)oc2c1` returned a z-score of 2.16.

Consider `O=C(CSc1nnc(COc2ccc3c(c2)CCCC3)o1)Nc1ccc(F)cc1`, for which the z-score was determined as 1.96.

As to `CN(C)C=NC(=O)c1ccc([N+](=O)[O-])c(CS(=O)(=O)c2ccc(Cl)cc2)c1`, the z-score is -0.0395.

Turning to `COC(=O)c1ccccc1NC(=S)NC(=O)COc1ccc(C)cc1`, the z-score is 2.28.

On to `C=CCN(c1ccc(C(=O)Nc2ccc(C)c(C)c2)cc1)S(C)(=O)=O`, for which the z-score was -0.412.

In turn, `COc1cccc(C(=O)Nc2cccc(NC(C)=O)c2)c1` gave a z-score of -1.49.

Turning to `Cc1ccc(C)c(S(=O)(=O)N2C(=S)NC(=O)C2C(C)C)c1` (stereo not given), the z-score is 0.0469.

The molecule `COC(=O)c1ccc(N2CCC(C)CC2)c(N)c1` gave a z-score of -0.0527.

`Cc1ccc(-n2cc(C(=O)c3ccc(F)cc3)nn2)cc1Cl` had a z-score of 0.781.

Consider `Nc1ccc(-c2nc3ccc(C(=O)O)cc3s2)cc1`, for which the z-score is -0.0804.

Molecule `Cc1[nH]c(=O)[nH]c(=O)c1NC(=O)CSc1ncccc1-c1nc2ccccc2[nH]1` gave a z-score of -0.0429.

On to `COc1cccc(C(=O)Nc2c(C)n[nH]c2C)c1`, for which the z-score came to 0.713.

Molecule `CC1CCc2c(sc(NC(=O)c3ccc(Cn4cc([N+](=O)[O-])cn4)o3)c2C#N)C1` (stereo not given) gave a z-score of 0.0147.

As to `CC1(C)SC(=S)N(NC(=O)Nc2ccccc2)C1N(O)C(=O)Nc1ccccc1` (stereo not given), the z-score was found to be 0.626.

For `N#Cc1ccccc1OCC(=O)Nc1c(C(=O)C2CC2)oc2ccccc12`, the z-score was -0.314.

Take `Cc1ccc(NC(=O)C(OC(=O)c2ccc(F)cc2)c2ccccc2)cc1Cl` (stereo not given): the z-score was -0.0515.

Turning to `COc1ccc([N+](=O)[O-])cc1COc1ccc2c(-c3ccccc3)cc(=O)oc2c1`, the z-score is -0.166.

`N/C(=N\c1nc2ccccc2o1)NC(=O)c1ccc(F)cc1` returned a z-score of 0.186.

In turn, `Cc1ccccc1-c1nnn(CC(=O)NCc2ccc3c(c2)OCO3)n1` showed a z-score of 1.38.

In turn, `COCCn1c(=NC(=O)/C=C/c2ccccc2Cl)sc2cc(NC(C)=O)ccc21` came in with a z-score of 0.151.

`CN(Cc1ccco1)C(=O)Cn1c(=O)oc2cc(S(=O)(=O)NCc3ccccc3)ccc21`: the z-score is -0.17.

Molecule `O=C(CSc1ncnc2ccccc12)NCCCO` yielded a z-score of 0.434.

`O=C1C2C3C=CC(C2C(=O)N1C1CCCCC1)C1C2C(=O)N(C4CCCCC4)C(=O)C2C31` (stereo not given) yielded a z-score of -0.242.

`COc1ccc(S(=O)(=O)NCC(c2cccnc2)N2CCN(c3ccccc3OC)CC2)cc1C` (stereo not given) returned a z-score of -0.264.

`O=[N+]([O-])c1cccc(Cl)c1N1CCOCC1` yielded a z-score of -0.119.

In turn, `O=C(Nc1ccc2c(c1)OCCO2)c1cc(-c2ccccc2)nc2ccccc12` yielded a z-score of -0.364.

Take `CCO/C=C/C(O)(CNC(=O)COc1ccccc1F)C(F)(F)F` (stereo not given): the z-score came to 0.157.

In turn, `O=C(Nc1nnc(Cc2ccccc2)s1)c1cccs1` displayed a z-score of -0.126.

As to `COc1ccc(S(=O)(=O)Nc2ccccc2C(=O)Nc2nc(-c3ccc(F)cc3)cs2)cc1OC`, the z-score was -1.09.

The molecule `O=C(Nc1ccc(Oc2ccccc2)cc1)C1CCCO1` (stereo not given) showed a z-score of 1.65.

In turn, `Cc1cc(C)n(C(=O)CNC(=O)Cc2ccccc2)n1` showed a z-score of -0.101.

Molecule `CCc1nnc(NC(=O)CSc2nc3cc4c(cc3cc2C)OCCO4)s1` showed a z-score of -0.118.

Take `CCOc1cccc(OCCOc2ccc(C(=O)c3ccccc3)cc2)c1`: the z-score was found to be 0.25.

In turn, `O=C(Cc1ccc(F)cc1)Nc1ccc(F)c([N+](=O)[O-])c1` came in with a z-score of 0.318.

In turn, `COC(=O)c1nnn(-c2nonc2N)c1CSc1nc2ccccc2o1` registered a z-score of -0.0333.

As for `CCOC(=O)c1sc(C)c(C(=O)NC2CCCCC2)c1N`, the z-score is active: 3.33.

As for `COc1ccc([N+](=O)[O-])cc1NC(=O)c1cn(-c2ccc(Cl)cc2)c(=O)c2ccccc12`, the z-score was -0.39.

`Oc1ccc2ccccc2c1CN1CCN(c2ccccc2F)CC1` gave a z-score of 0.0406.

Regarding `COC(=O)c1sccc1NC(=O)c1cc(OC)cc(OC)c1`, the z-score was -0.12.

The molecule `COc1cccc(/C(O)=C2/C(=O)C(=O)N(CCCN3CCOCC3)C2c2ccncc2)c1` (stereo not given) registered a z-score of -0.281.

Molecule `O=C(OCC(=O)N(C1CCCCC1)C1CCCCC1)c1ccco1` registered a z-score of -0.337.

`O=C(NCc1cccnc1)c1cc2ccccc2oc1=O` gave a z-score of -0.0878.

The molecule `Cn1c(=O)c2c(O)cc(=O)[nH]c2n(-c2ccccc2)c1=O` gave a z-score of -0.00781.

`Cc1ccc(OCCN2C(=O)c3ccccc3C2=O)cc1` had a z-score of 0.0165.

For the molecule `COc1cccc(NC(=O)C2C3CC4OC(=O)C2C4C3)c1` (stereo not given), the z-score is 0.525.

`Cc1ccc(CC(=O)Nc2nc3ccccc3[nH]2)cc1C`: the z-score was 0.207.

For `Cc1ccc(S(=O)(=O)N2CCOCC2)cc1C(=O)OCC(=O)N1c2ccccc2NC(=O)C1(C)C`, the z-score was determined as 0.0833.

For `CCC1CCCCN1C(=O)CSc1nc(N)c(NC(=O)c2ccc(OC)c(OC)c2)c(=O)[nH]1` (stereo not given), the z-score turned out to be 0.193.

`COc1ccc(NC(=O)CC2Oc3ccc(C)cc3NC2=O)cc1` (stereo not given) came in with a z-score of -0.732.

Molecule `CCc1ccc(N2CC(C(=O)NC3=NCCS3)CC2=O)cc1` (stereo not given) yielded a z-score of -0.0561.

The molecule `CCC(C)NC(=O)CSc1nc2ccsc2c(=O)n1-c1ccc(OC)cc1` (stereo not given) returned a z-score of -0.11.

`CCOC(=O)Cn1nnc(-c2ccc(OCC(C)C)cc2)n1` came in with a z-score of -0.396.

Take `CCOc1ccc(C(=O)N(CN2CCCC2=O)c2ccc(C)cc2)cc1`: the z-score is -0.477.

As for `CCCNC(=O)NC(=O)COc1ccc2oc3ccccc3c2c1`, the z-score turned out to be 0.316.

`CC1(C)CC(=O)C=C(NC2CCCCCC2)C1` had a z-score of 1.16.

For `CCN(CC)C(=O)C1=C(C)NC(=S)NC1c1cn(-c2ccccc2)nc1-c1ccc(Cl)cc1` (stereo not given), the z-score was -0.197.

Consider `Cc1ccc(O)c(CNn2cnnc2)c1`, for which the z-score was found to be 0.684.

`O=C(c1ccccc1)c1cccn1CC(=O)N1CCN(c2ccc(F)cc2)CC1`: the z-score is -0.25.

As to `O=C(CCNS(=O)(=O)c1cccc2nsnc12)N1CCN(c2ccccn2)CC1`, the z-score came out at 0.415.

Take `CCOc1cc(NS(=O)(=O)c2ccc(Cl)cc2)c(OCC)cc1NC(=O)CC(C)C`: the z-score was -0.554.

Regarding `COc1ccc(S(=O)(=O)Nc2ccc(Oc3ncccn3)c(Cl)c2)cc1`, the z-score was -0.553.
